Measurements: PubChem BioAssay AID1347417 (National Center for Advancing Translational Sciences (NCATS), 2020)
Among all 120,000 compounds or so, about 5,300 (4.4%) were called active. The shares of active, inactive and inconclusive entries below differ from those in the screen. Calls follow the shape of the dose curve; as a rule, active = well fitted inhibition curve with a large enough effect; inconclusive = small, poorly fitted or top-dose-only effect; inactive = no such curve, though single readings can be large or run the other way. A potency beside an inconclusive call is a rough fit, not a confirmed value.

Test: qHTS Primary assay for Inhibitors of Plasmodium falciparum Dd2 growth in vitro; also: nearly all actives have a fitted effect of over 65% in size;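 as to activity, negative = inhibition: plate controls were DMSO vehicle for no effect and reference drug for full effect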
Conditions: P. falciparum Dd2 growth, SYBR Green, 72 h; activity, negative = inhibition: at 28.9 µM (top of the series) unless noted; series mostly up to 28.9 µM
Method in brief: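 Infected erythrocytes (Dd2, 0.3% parasitemia, 2.5% hematocrit final) are added to compound in RPMI-1640/Albumax II medium, grown 72 h at 37C in low oxygen, then lysed with saponin/Triton-X containing SYBR Green and read by fluorescence.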
Potency is read from the fitted curve at half-maximal effect; tags tell the direction and shape of the fitted curve.

| Compound | Potency | activity, negative = inhibition | outcome |
| --- | --- | --- | --- |
| CC(=O)N1CCC(NC[C@@H]2C=C(C)[C@H](Cc3nc4ccccc4[nH]3)C[C@H]2C(C)C)CC1 | inconclusive: 11.2 µM [inhibitor, partial curve, poor fit] |  |  |
| CC(=O)N1CCC(N2C[C@H](O)C[C@H]2c2nc(-c3ccc(C(F)(F)F)cc3)no2)CC1 | inconclusive: 11.2 µM [inhibitor, partial curve, poor fit] |  |  |
| CCOC(=O)C1CCCN(C(=O)Cc2ccc(N(Cc3cccc(F)c3)C(=O)c3ccco3)cc2)C1 (stereo not given) | active: 3.98 µM |  |  |
| O=C([C@@H]1C[C@H](Oc2cccnc2)CN1C(=O)CCCc1ccccc1)N1CCOCC1 |  | inactive: 8.08% |  |
| O=C(NCc1ccccc1Cl)c1csc(N2CCN(c3ccc(F)cc3)CC2)n1 |  |  | inactive |
| CCCCNC(=O)N1CC(C(=O)NC(C)c2ccccc2)CC(c2ccc(OC)c(OC)c2)C1 (stereo not given) | inconclusive: 0.398 µM [inhibitor, full curve, poor fit] |  |  |
| O=c1c(S(=O)(=O)c2ccccc2)cn(Cc2ccc(F)cc2)c2cc(N3CCCC3)c(F)cc12 |  | inconclusive: -47.3% [inhibitor] [at 5.79 µM] |  |
| CC(C)CN1Cc2ccccc2-n2ccnc2C12CCN(C(=O)c1ccccc1F)CC2 | inconclusive: 2.51 µM [inhibitor, single point] |  |  |
| CC(C)CCN1CCC2(CC1)NCc1ccccc1NC2=O |  | inconclusive: -113% [inhibitor] [at 44.1 µM] |  |
| Cc1ccccc1S(=O)(=O)N1CCCC(CCC(=O)N2CCc3ccccc3C2)C1 (stereo not given) |  | inactive: -27.1% |  |
| CC1=C[C@@H](CNC(=O)c2ccco2)[C@H](C(C)C)C[C@H]1CC(=O)NCc1ccccn1 |  |  | inactive [at 44.1 µM] |
| C[C@H]1[C@@H]2[C@@H](O)C([C@H](C)C(=O)NCc3ccccn3)CC[C@@]2(C)CC[C@@H]1NC(=O)c1ccccc1 (stereo not given in full) | inconclusive: 15.8 µM [inhibitor, single point] |  |  |
| Cc1ccc(N(C)C(=O)Cn2nc(Cc3ccncc3)c3ccccc3c2=O)cc1C | inconclusive: 15.8 µM [inhibitor, single point] |  |  |
| COc1ccc(-c2noc(-c3ncn4c3COC(c3ccc(F)cc3)C4)n2)c(OC)c1 (stereo not given) | inconclusive: 2.24 µM [inhibitor, partial curve] |  |  |
| O=C(CCc1conc1-c1ccccc1)NCc1ccccc1F |  | inactive: -19% |  |
| CCN(CC)C(=O)[C@@H](C)C1CC[C@@]2(C)Cc3sc(N)nc3[C@@H](C)[C@@H]2[C@H]1O (stereo not given in full) | inconclusive: 10 µM [inhibitor, single point] |  |  |
| COc1ccc(CN2CCCC3(Cc4ccccc4CNC3=O)C2)cc1F (stereo not given) | inconclusive: 11.2 µM [inhibitor, partial curve, poor fit] |  |  |
| Cc1ccc([S+](=O)([O-])N2CCC3(CCN(Cc4cccs4)c4ccccc4O3)CC2)cc1 | inconclusive: 1.12 µM [inhibitor, partial curve] |  |  |
| COC(=O)[C@@H](Cc1cccnc1)NC(=O)[C@H]1CN(C(=O)c2cccnc2)CCN1C(=O)C1CCCCC1 |  | inactive: 0.55% |  |
| COc1ccc(N2C(=O)C3(CCCCC3)C2C(=O)O)cc1 (stereo not given) |  | inactive: 7.21% |  |
| Cc1ccc(C2Cn3cnc(C(=O)N4CCC(C(=O)NCc5ccco5)CC4)c3CO2)cc1 (stereo not given) | inconclusive: 0.282 µM [inhibitor, full curve] |  |  |
| O=C(c1cc2ccccc2[nH]1)N1CCC2(C1)NC(=O)N(Cc1ccc(F)cc1)C2=O (stereo not given) | inconclusive: 8.91 µM [inhibitor, partial curve, poor fit] |  |  |

| Compound | Potency | activity, negative = inhibition | outcome |
| --- | --- | --- | --- |
| Cc1ccc(Cn2cc(S(=O)(=O)c3ccccc3)c(=O)c3cc(F)c(N4CCOCC4)cc32)cc1 | active: 10 µM |  |  |
| CC(C)c1noc(C2CCCN(C(=O)C3(c4ccccc4)CC3)CCC(=O)NCC2)n1 (stereo not given) | inconclusive: 4.47 µM [inhibitor, partial curve, poor fit] |  |  |
| Cc1cc(C)cc(C(=O)N2CCc3[nH]nc(C(=O)N(C)C)c3C2)c1 | inconclusive: 5.01 µM [inhibitor, partial curve, poor fit] |  |  |
| Cc1cn2nc(C(=O)Nc3ccccc3C)cc2c(N2CCSCC2)n1 | inconclusive: 3.98 µM [inhibitor, partial curve, poor fit] |  |  |
| CN1CC(=O)N(C2CCC2)Cc2c(NC3CCCC3)ncnc21 |  | inactive: -6.96% |  |
| CCCCN(CCCNC(=O)c1cc(Nc2ccc(OC)cc2OC)nc2ccccc12)Cc1ccccc1 | inconclusive: 6.31 µM [inhibitor, partial curve] |  |  |
| CN1CCCC1c1nc(C2CN(C(=O)c3ccsc3)C2)no1 (stereo not given) | inconclusive: 3.98 µM [inhibitor, partial curve, poor fit] |  |  |
| CCOC(=O)c1c(NC(=O)CSc2cn(CCNC(=O)c3ccc(OC)cc3)c3ccccc23)sc2c1CCC2 | active: 12.6 µM |  |  |
| COc1ccc(NC(=O)CSc2nc(-c3ccccc3)cc(-c3cc(OC)c(OC)c(OC)c3)c2C#N)c(OC)c1 | active: 6.31 µM |  |  |
| CS(=O)(=O)N1CCC(N2CC(OCC3CC3)C23CCCCC3)CC1 (stereo not given) | inconclusive: 11.2 µM [inhibitor, single point] |  |  |
| CN1C(=O)c2ccc(NC(=O)Cn3nc4c(cc3=O)CCCC4)cc2C1=O |  | inactive: -9.19% |  |
| Fc1ccc2nc([C@H]3CCN(Cc4ccc(F)c(F)c4)C3)[nH]c2c1 | inconclusive: 5.01 µM [inhibitor, single point] |  |  |
| CCn1ncc(C(=O)N2C[C@@H](CO)[C@H](c3nc(C4CC4)no3)C2)c1C |  | inactive: -9.38% |  |
| CCNC(=O)N[C@H]1C[C@@H](c2nc(-c3ccc(OC(F)(F)F)cc3)no2)N(C)C1 | inconclusive: 31.6 µM [inhibitor, single point] |  |  |
| FC(F)(F)CN1C2CCC1CN(c1cc(Cl)ncn1)C2 |  | inactive: 11.1% |  |
| O=C(Nc1cccc(-c2nnc3n2CCCC3)c1)c1ccc2ccccc2n1 | inconclusive: 3.98 µM [inhibitor, partial curve, poor fit] |  |  |
| O=C1Cc2c(-c3ccoc3)n[nH]c2CN1Cc1ccccc1 | inconclusive: 6.31 µM [inhibitor, partial curve, poor fit] |  |  |
| Cc1ccccc1CNC(=O)CCn1ccn2nc3c(c2c1=O)CCCC3 |  | inactive: -4.24% |  |
| Cc1ccccc1C(=O)Nc1cccc(-c2nc3cccnc3s2)c1 | inconclusive: 0.1 µM [inhibitor, full curve, poor fit] |  |  |
| CC(C)c1nc2c(c(-c3ccc(O)cc3)n1)CN(C(=O)c1ccccc1Cl)CC2 | inconclusive: 11.2 µM [inhibitor, single point] |  |  |
| Fc1ccc(-c2cc(-c3cn[nH]c3)c3cncn3c2)cc1 | inconclusive: 7.94 µM [inhibitor, partial curve] |  |  |
| COc1ccc(C(CNC(=O)COc2cc(C)c(Cl)c(C)c2)N2CCCCC2)cc1 (stereo not given) | inconclusive: 10 µM [inhibitor, single point] |  |  |

| Compound | Potency | activity, negative = inhibition | outcome |
| --- | --- | --- | --- |
| N#Cc1ccccc1CN1CCC2(CC1)Cc1ccccc1CNC2=O |  | inactive: -0.827% |  |
| CS(=O)(=O)c1cnc(NCCCc2ccccc2)nc1C1CCCNC1 (stereo not given) | inconclusive: 14.1 µM [inhibitor, single point] |  |  |
| Cc1cccc(OCC(=O)N2C[C@@H](CO)[C@H](c3ccncc3)C2)c1 |  | inactive: 7.68% |  |
| CCc1ccccc1NC(=O)N1c2ccccc2CC1c1nc(C2CC2)no1 (stereo not given) |  |  | inactive [at 5.79 µM] |
| O=C(NC1CCCCC1)c1ccc(CN2C(=O)NC3(CCS(=O)(=O)CC3)C2=O)cc1 | inconclusive: 17.8 µM [inhibitor, single point] |  |  |
| COC(=O)c1cccc(NC(=O)N2CCc3c(nc4cc(-c5ccccc5)[nH]n4c3=O)C2)c1 | inconclusive: 7.08 µM [inhibitor, partial curve, poor fit] |  |  |
| CC(C)CN(C/C=C/c1ccccc1)C(=O)C1CC2(CCNCC2)CN1 (stereo not given) | inconclusive: 20 µM [inhibitor, single point] |  |  |
| COc1cc(CNCCC(C)C)ccc1OCC(O)CN1CCSCC1 (stereo not given) | inconclusive: 7.94 µM [inhibitor, partial curve] |  |  |
| COc1cccc(C(=O)NC(C(=O)N2CCCCC2)C2CCN(C(=O)c3cccs3)CC2)c1 (stereo not given) |  | inactive: -8.7% |  |
| NCc1ccccc1-c1cc(C(F)(F)F)ccc1Cl | inconclusive: 5.62 µM [inhibitor, partial curve] |  |  |
| Cc1ccccc1OCC(=O)Nc1ccc(OCc2cc(=O)n3ccccc3n2)cc1 |  | inactive: 5.84% |  |
| COc1ccccc1CN1C(=O)COC[C@@H]1[C@H](O)c1ccc(NC(=O)c2ccc(C#N)cc2)cc1 | inconclusive: 12.6 µM [inhibitor, single point] |  |  |
| O=C(C1CC1)N1CCCC(Cc2noc(-c3ccccn3)n2)C1 (stereo not given) | inconclusive: 0.355 µM [inhibitor, partial curve, poor fit] |  |  |
| CNC(=O)c1noc([C@@H]2CC(F)(F)CN2C(=O)Cc2ccccc2)n1 |  | inactive: -0.0428% |  |
| O=C(CCC1CCCN(S(=O)(=O)c2ccccc2F)C1)NCc1cccs1 (stereo not given) | inconclusive: 12.6 µM [inhibitor, single point] |  |  |
| CC(C)CN1CCN(C(=O)CCC[C@@H]2[C@H]3CCCN4CCC[C@@H](CN2C(=O)c2cccnc2)[C@@H]34)CC1 | inconclusive: 10 µM [inhibitor, single point] |  |  |
| CN(C)C(=O)c1cc(Br)cn2ccnc12 | inactive |  |  |
| Cc1ccc(CN(Cc2cccn2-c2nnc(N3CCCC3=O)s2)C(=O)Nc2cc(C)cc(C)c2)cc1 | active: 3.16 µM |  |  |
| O=C1NC2(CCN(C(=O)c3ccccc3F)CC2)Oc2ccccc21 |  |  | inactive [at 44.1 µM] |
| O=C(c1cn2ccccc2n1)N1C[C@@H](CO)[C@H](c2ccncc2)C1 | inconclusive: 20 µM [inhibitor, single point] |  |  |
| O=C1CO[C@H]2CN(Cc3ccccn3)C[C@H]2N1c1ccccc1 | inconclusive: 31.6 µM [inhibitor, single point] |  |  |
